Laboratory results: patent US20260200947A1, “FUSED CYCLIC COMPOUNDS AND USE THEREOF” (Jacobio Pharmaceuticals Co., Ltd., priority 2022, published 2026)

Columns and labels:
[1] = tested on: AsPC-1 cells (K-Ras G12D)

Row | Structure (SMILES) | IC50 [1] | IC50 (AGS cells (K-Ras G12D)) | IC50 (SW620 cells (K-Ras G12V))
1 | C#Cc1c(F)ccc2cc(N)cc(-c3nc4c5c(nc(OCC6(CN7CCOCC7)CC6)nc5c3F)N3CCCOC[C@H]3N4C)c12 [Compound 74] | 126 nM | 112 nM | 
2 | C#Cc1c(F)ccc2cc(O)cc(-c3nc4c5c(nc(OCC67CC(=C)CN6CC(=C)C7)nc5c3F)N3CCCOC[C@H]3CO4)c12 [Compound 2] | 386 nM | 13.5 nM | 44.1 nM
3 | C#Cc1c(F)ccc2cc(N)cc(-c3nc4c5c(nc(OC[C@@]67CCCN6C[C@H](F)C7)nc5c3F)N3CCC=CCC3N4C)c12 (stereo partly drawn) [Compound 72] | 145 nM | 20.9 nM | 79.6 nM
4 | C#Cc1c(F)ccc2cc(N)cc(-c3nc4c5c(nc(OC[C@@]67CCCN6C[C@H](F)C7)nc5c3F)N3CCCCOC3N4C)c12 (stereo partly drawn) [Compound 70] | 353 nM | 23.3 nM | 
5 | C[C@H]1CCOC[C@H]2N(C)c3nc(-c4cc(O)cc5ccc(F)c(F)c45)c(F)c4nc(OC[C@@]56CCCN5C[C@H](F)C6)nc(c34)N12 [Compound 73] | 128 nM | 6.87 nM | 28.9 nM
6 | C#Cc1c(F)ccc2cc(N)cc(-c3nc4c5c(nc(OC[C@@]67CCCN6C[C@H](F)C7)nc5c3F)N3CCC=CC3N4C)c12 (stereo partly drawn) [Compound 71] |  | 41.2 nM | 40.9 nM
